According to the supplement of paper PMC10126150:
Sequences with one replicate were seen in a single cluster, so their values are uncertain.

System: ATP
Assay: switch fluorescence ratio, 500 uM ATP over buffer (Cy3 cluster intensity, sum of 5 cycles each) (fold (ratio)); higher = stronger signal-on switching upon ATP binding; sequences stand for … in TCGTCGGCAGCGTCAGATGTGTATAAGAGACAGTTTTTTTTTTTTTTTTTTTTTTTTT…TC
Details: aptamer strand: ATP DNA aptamer (quencher-CACCTGGGGGAGTATTGCGGAGGAAGG + anchor), 100 nM annealed; ATP concentration: 500 uM; one replicate
Procedure, shortened: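 For every switch-domain sequence, the fluorescence ratio is the mean of per-cluster values, each being summed target-cycle Cy3 intensity over summed buffer-cycle Cy3 intensity. Clusters outside 100-1000 RFU were excluded. On a modified Illumina MiSeq flow-cell, the Cy3-labelled switching-strand clusters were annealed to 100 nM quencher-labelled ATP aptamer, imaged in selection buffer and then after 15 min with 500 uM ATP at 22 °C. Five such cycles were run, with NaOH stripping and re-annealing between them.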
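Also: ATP exposure 15 min at 22 °C before imaging.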

| Sequence | switch fluorescence ratio |
| --- | --- |
| AAGTTCAATC | 1.02 |
| AAGTTCGGCC | 0.985 |
| AAGTTGCCTA | 0.993 |
| AAGTTGTCG | 1.07 |
| AAGTTTGAAA | 1.01 |
| AAGTTTTCTG | 1.06 |
| AATAAAACAT | 1.01 |
| AATAAAATCT | 1.14 |
| AATAAAGGAA | 1.04 |
| AATAAAGTCG | 0.994 |
| AATAACCA | 1.02 |
| AATAAGCATG | 1.03 |
| AATAATGGGT | 1.03 |
| AATAATGTAG | 0.984 |
| AATACAACGC | 1.03 |
| AATACATTTT | 1.01 |
| AATACCGTCA | 1.05 |
| AATACGCCGT | 1.04 |
| AATACGGGGC | 0.99 |
| AATAGAAAGC | 0.984 |
| AATAGGCCCT | 1.06 |
| AATAGGGCAC | 1.01 |
| AATAGGGTGG | 1.02 |
| AATAGTCTT | 0.962 |
| AATAGTTGT | 0.974 |
| AATAGTTTAA | 1 |

| Sequence | switch fluorescence ratio |
| --- | --- |
| AATATAAGTG | 1.02 |
| AATATACGGC | 1.04 |
| AATATATGAG | 0.977 |
| AATATCGTAC | 1.18 |
| AATATGAGTT | 1.01 |
| AATATGCATT | 1.01 |
| AATATTTAAT | 0.951 |
| AATATTTCG | 0.98 |
| AATATTTGCA | 0.994 |
| AATCAAAACT | 1.71 |
| AATCAATATA | 0.991 |
| AATCACATCT | 1 |
| AATCACATGC | 1.05 |
| AATCACCGCT | 1.06 |
| AATCAGGA | 0.964 |
| AATCATCATG | 1.18 |
| AATCATTTTA | 0.993 |
| AATCCCGGCA | 1.14 |
| AATCCCTTT | 0.975 |
| AATCCGATTT | 1.03 |
| AATCCGGGG | 1.03 |
| AATCCTGAC | 2.44 |
| AATCGAGGTC | 0.959 |
| AATCGCAAAG | 1.01 |
| AATCGCATAT | 1.4 |
| AATCGCTGAC | 1.87 |

| Sequence | switch fluorescence ratio |
| --- | --- |
| AATCGGGTCC | 1.04 |
| AATCGTCACC | 1.09 |
| AATCGTTTGG | 0.951 |
| AATCTAATTA | 0.98 |
| AATCTAGGGA | 0.968 |
| AATCTATGTC | 0.984 |
| AATCTCAAC | 0.98 |
| AATCTCATA | 1.02 |
| AATCTCTCCG | 1.34 |
| AATCTGACGA | 1.36 |
| AATCTGATAG | 1.01 |
| AATCTTCACA | 1.05 |
| AATCTTTATC | 0.98 |
| AATGAAAAG | 0.99 |
| AATGAGAGCG | 0.975 |
| AATGAGATCT | 1.02 |
| AATGAGATGT | 0.95 |
| AATGAGCGAA | 1.02 |
| AATGAGGCAG | 0.991 |
| AATGAGGTAA | 0.994 |
| AATGAGGTTG | 0.934 |
| AATGATGACA | 1.04 |
| AATGCAGGAT | 1.03 |
| AATGCCACGC | 1.09 |
| AATGCGAAGC | 1.1 |
| AATGCGTTGG | 0.965 |

| Sequence | switch fluorescence ratio |
| --- | --- |
| AATGCTTCCG | 1.1 |
| AATGCTTCGG | 0.977 |
| AATGGAAATG | 1 |
| AATGGCAAAA | 0.996 |
| AATGGCAATA | 1.6 |
| AATGGCCGTA | 1.02 |
| AATGGGGCCA | 1 |
| AATGGGGTGC | 1.04 |
| AATGGTCTCT | 1 |
| AATGGTGT | 1.06 |
| AATGGTGTGC | 0.986 |
| AATGTAACCG | 1 |
| AATGTACAT | 0.993 |
| AATGTATATA | 1.02 |
| AATGTCCTA | 0.986 |
| AATGTCTCGT | 0.992 |
| AATGTGCTAT | 1.04 |
| AATGTTGCCA | 0.966 |
| AATGTTGCTC | 1.02 |
| AATGTTTACG | 0.957 |
| AATGTTTGT | 0.993 |
| AATTAAACG | 1.02 |
| AATTAAAGC | 0.97 |
| AATTACACCG | 1.03 |
| AATTAGTAAG | 1.04 |
| AATTATCTCC | 1.08 |

| Sequence | switch fluorescence ratio |
| --- | --- |
| AATTATGCAT | 1.02 |
| AATTATGCTT | 0.99 |
| AATTCAATAA | 1.01 |
| AATTCACGGG | 1.12 |
| AATTCAGATC | 1.01 |
| AATTCAGTTA | 1 |
| AATTCATGG | 0.984 |
| AATTCATTGC | 0.988 |
| AATTCCCGAC | 1.03 |
| AATTCCCGG | 0.971 |
| AATTCCTACC | 1.11 |
| AATTCCTGAG | 1.12 |
| AATTCGCATT | 1.26 |
| AATTCGGACT | 1.27 |
| AATTCGGCCC | 1.01 |
| AATTCTCAAG | 0.999 |
| AATTCTCGGC | 0.987 |
| AATTCTGAG | 1.02 |
| AATTCTGCCT | 1.01 |
| AATTCTGGTC | 1.1 |
| AATTCTGTCG | 0.963 |
| AATTCTTCAG | 1.04 |
| AATTCTTGAC | 1.01 |
| AATTGAGCGA | 1.09 |
| AATTGATAGA | 1 |
| AATTGCGATA | 1.09 |

| Sequence | switch fluorescence ratio |
| --- | --- |
| AATTGGGAGA | 0.938 |
| AATTGTATTG | 0.991 |
| AATTGTGAGC | 1.01 |
| AATTGTGTT | 0.977 |
| AATTGTTAGC | 0.99 |
| AATTTATCA | 1.02 |
| AATTTATGAT | 0.984 |
| AATTTCAAAA | 0.995 |
| AATTTCCATC | 1 |
| AATTTCCTCA | 1.02 |
| AATTTCGATG | 0.988 |
| AATTTCGTTC | 1.09 |
| AATTTCTGGA | 0.994 |
| AATTTCTTCA | 1.03 |
| AATTTGAAAA | 1.02 |
| AATTTGATGA | 1.03 |
| AATTTGCCTC | 1.02 |
| AATTTGCGAG | 0.991 |
| AATTTGGTT | 0.963 |
| AATTTTACTT | 1.13 |
| AATTTTGAAC | 1.02 |
| ACAAAACATT | 1.13 |
| ACAAAACGGC | 1.26 |
| ACAAACATGC | 1.17 |
| ACAAACGAAA | 1.15 |
| ACAAACTGTG | 1.09 |

| Sequence | switch fluorescence ratio |
| --- | --- |
| ACAAAGCCGT | 0.968 |
| ACAAATACCA | 1.01 |
| ACAAATTTCG | 1.03 |
| ACAACGCGGA | 1.24 |
| ACAAGAAACG | 1.08 |
| ACAAGATTAA | 0.975 |
| ACAAGCTTCC | 2.9 |
| ACAAGGAGGA | 1.03 |
| ACAAGTCAA | 1.01 |
| ACAAGTGATA | 0.973 |
| ACAAGTTAAC | 1.03 |
| ACAATACTGA | 1.3 |
| ACAATCGACG | 1.05 |
| ACAATCTATT | 1.01 |
| ACAATGATAC | 1.24 |
| ACAATGCCTC | 1.02 |
| ACAATGTTGA | 1.03 |
| ACAATTAGGG | 0.991 |
| ACAATTGAGA | 0.976 |
| ACAATTGGCC | 0.952 |
| ACAATTTAAC | 1.04 |
| ACACACGTGC | 1.29 |
| ACACAGAGTG | 1.03 |
| ACACAGGTTC | 1.1 |
| ACACATCAAG | 1.03 |
| ACACATGACG | 0.99 |

| Sequence | switch fluorescence ratio |
| --- | --- |
| ACACCAAATG | 1.02 |
| ACACCAGCCG | 1.05 |
| ACACCGGATA | 1.15 |
| ACACCTAATG | 0.996 |
| ACACCTTATG | 1.01 |
| ACACCTTCCG | 2.59 |
| ACACGACATT | 1.2 |
| ACACGACCG | 1.15 |
| ACACGCCGGG | 1.22 |
| ACACGCTATG | 1.18 |
| ACACGGCGTG | 0.996 |
| ACACGTCTAT | 1.07 |
| ACACTATGTG | 0.953 |
| ACACTCGGGG | 0.98 |
| ACACTCGTTA | 0.98 |
| ACACTGAAGC | 1.05 |
| ACACTTAGTT | 1.05 |
| ACACTTGGTA | 1.01 |
| ACAGAAATAA | 0.989 |
